Substrate: COCCCOc1cc(C[C@@H](C[C@H](N)[C@@H](O)C[C@H](C(=O)NCC(C)(C)C(N)=O)C(C)C)C(C)C)ccc1OC
Experiment: Enzyme kinetics constant (Km value) for CYP3A4 was determined in human liver microsome incubated with [14C]SPP100 hemifumarate
Assay type: ADME, microsomes

B1: Cytochrome P450 3A4 (Homo sapiens) (protein)
chain: MALIPDLAMETWLLLAVSLVLLYLYGTHSHGLFKKLGIPGPTPLPFLGNILSYHKGFCMFDMECHKKYGKVWGFYDGQQPVLAITDPDMIKTVLVKECYSVFTNRRPFGPVGFMKSAISIAEDEEWKRLRSLLSPTFTSGKLKEMVPIIAQYGDVLVRNLRREAETGKPVTLKDVFGAYSMDVITSTSFGVNIDSLNNPQDPFVENTKKLLRFDFLDPFFLSITVFPFLIPILEVLNICVFPREVTNFLRKSVKRMKESRLEDTQKHRVDFLQLMIDSQNSKETESHKALSDLELVAQSIIFIFAGYETTSSVLSFIMYELATHPDVQQKLQEEIDAVLPNKAPPTYDTVLQMEYLDMVVNETLRLFPIAMRLERVCKKDVEINGMFIPKGVVVMIPSYALHRDPKYWTEPEKFLPERFSKKNKDNIDPYIYTPFGSGPRNCIGMRFALMNMKLALIRVLQNFSFKPCKETQIPLKLSLGGLLQPEKPVVLKVESRDGTVSGA
Km: 24.3 µM | Vmax: 0.0246 µmol/min/mg

Reference: ChEMBL document CHEMBL3508693
